PubChem BioAssay AID624296 (National Center for Advancing Translational Sciences (NCATS), 2012)
Hit rate of the full screen: of about 350,000 compounds, about 9,900 (2.8%) were called active. The inconclusive results got no clear call from the source; some entries with a clear call stand among them for comparison. Calls come from the whole dose curve; as a rule, active = well fitted activation curve with a large enough effect; inconclusive = small, poorly fitted or top-dose-only effect; inactive = no such curve, though single readings can be large or run the other way. No potency is given beside an inconclusive call; the fits are too rough.

Assay: A quantitative high throughput screen for small molecules that induce DNA re-replication in MCF 10a normal breast cells. For activity, positive = re-replication: % of control where 0% means no effect. Note: nearly all actives have a fitted effect of over 50% in size.
Conditions: MCF 10A DNA re-replication, Hoechst nuclear intensity, 48 h; activity, positive = re-replication: at 46.1 µM (top of the series)
Potency is the fitted concentration of half-maximal effect; tags give direction and shape of the fitted curve.

SMILES | Potency | activity, positive = re-replication
Cc1cc(C)c(S(=O)(=O)N(C)CC(N)=O)c(C)c1 | inconclusive [activator, full curve] | 
CCOC(=O)CSc1nc2ccc(N3CCOCC3)cc2c(=O)n1Cc1ccccc1 | inconclusive [activator, full curve, poor fit] | 
CCCNS(=O)(=O)c1cccc(C(=O)NNC(=O)c2cc(C)oc2C)c1 |  | inactive: -2.4%
COC(=O)[C@H](CCSC)NC(=O)Nc1ccc(OC)cc1 | inconclusive [activator, full curve, poor fit] | 
CCOc1cc(/C=N/O)cc(Br)c1OCC | inconclusive [activator, partial curve, poor fit] | 
C=CCN1C(=O)C2(OCCCO2)c2c(C)ccc(C)c21 | inconclusive [activator, partial curve, poor fit] | 
COc1cc(C(=O)NCC2CCCO2)ccc1OCc1ccc(Cl)cc1 (centres undefined) |  | inactive: -3.1%
CCOC(=O)c1c(C)[nH]c(C(=O)CSc2nnc(Nc3ccccc3F)s2)c1C | inconclusive [activator, single point] | 
CC(=O)Nc1scc(C)c1-c1nc2ccccc2s1 | active: 20.6 µM | 
COc1ccc(NC(=O)COC(=O)CN2C(=O)C3CCCCC3C2=O)cc1OC (centres undefined) |  | inactive: -2.32%
COc1ccccc1CNC(=O)CCc1ccccc1 |  | inactive: -6.75%
CCOC(=O)C(=Cc1cn(C)c2ccc(S(=O)(=O)N(C)C)cc12)C(=O)OCC | inconclusive [activator, single point] | 
CCSc1nc2ccccc2[nH]1 | inactive | 
CCn1nc(C(=O)N2CCc3ccccc32)c2ccccc2c1=O | inconclusive [activator, partial curve, poor fit] | 
COc1cc2nc(N3CCN(C(=O)OCc4ccccc4)[C@H](C(=O)NC(C)(C)C)C3)nc(N)c2cc1OC | inconclusive [activator, single point] | 
O=C(CN1c2ccccc2Sc2ccccc21)NNC(=S)Nc1ccc(Cl)cc1 | inconclusive [activator, single point] | 
N#C/C(=C\c1ccc(OC(=O)c2cccs2)cc1)c1nc2ccccc2[nH]1 | inconclusive [activator, partial curve, poor fit] | 
CC(C)CN1CCN(CCCc2ccccc2)C(CCO)C1 (centres undefined) | inconclusive [activator, partial curve] | 
C=CCSC(=C(C#N)C#N)c1cc2c([nH]1)CCCC2 | inconclusive [activator, single point] | 
COc1cccc(-c2nn(-c3ccc(C)cc3)cc2C(=O)NCC2CCCO2)c1 (centres undefined) |  | inactive: 3.72%
CN(C)C(=O)CCc1ccc2c3c([nH]c2c1)[C@]1(C)[C@@H](C(=O)N2CCOCC2)C[C@H](CC(=O)NCC24CC5CC(CC(C5)C2)C4)C(=O)N1CC3 | inconclusive [activator, full curve, poor fit] | 
COc1ccc(NC(=O)CN2CCN(C(=O)N3CCOCC3)CC2)cc1 |  | inactive: -18.6%

SMILES | Potency | activity, positive = re-replication
Cc1nn(C)cc1C1C2=C(CC(C)(C)CC2=O)N(c2ccccc2)C2=C1C(=O)CC(C)(C)C2 |  | inactive: -4.15%
O=C1CC2(CCN(C(=O)c3ccc(F)cc3)CC2)Oc2ccccc21 |  | inactive: -3.26%
c1ccc(-c2ccccc2OCCOCCN2CCCCC2)cc1 | inconclusive [activator, partial curve, poor fit] | 
Cc1ccc(S(=O)(=O)c2nnn3c2nc(N2CCOCC2)c2ccccc23)cc1C |  | inactive: -0.506%
O=C1c2ccccc2NC(c2ccc(Cl)cc2Cl)N1O (centres undefined) | inconclusive [activator, partial curve, poor fit] | 
Fc1ccc(-c2csc(Nc3ccccn3)n2)c(F)c1 | inconclusive [activator, single point] | 
COc1ccc(-c2nnc(SCC(=O)c3ccc[nH]3)n2-c2ccccc2)cc1 | inconclusive [activator, partial curve, poor fit] | 
Cc1cccc(S(=O)(=O)c2c(N)n(/N=C/c3ccco3)c3nc4ccccc4nc23)c1 | inconclusive [activator, partial curve, poor fit] | 
CCCCCCc1cc2cc(S(=O)(=O)c3ccc(F)c(Cl)c3)c(=O)oc2cc1O | inconclusive [activator, partial curve, poor fit] | 
COCC1CCCN(C(=O)c2ccc3oc(Cc4ccc(Cl)cc4)nc3c2)C1 (centres undefined) |  | inactive: 6.49%
CCCc1nc(SCC(=O)c2ccc(OC)cc2)c2ccccc2n1 | inconclusive [activator, single point] | 
O=C1C2CC=CCC2C(=O)N1n1cnnc1 (centres undefined) | inconclusive [activator, full curve, poor fit] | 
O=c1[nH]nc(Sc2ncnc3sccc23)n1CCc1ccccc1 | inconclusive [activator, single point] | 
COCCNC(=O)CSc1c2c(nc3ccc(Cl)cc13)CCCC2 | inconclusive [activator, single point] | 
COc1ccc(/C=C/C(=O)Nc2ccccc2)cc1OC |  | inactive: -0.918%
CC(C)c1ccc(NC(=O)c2ccc3c(c2)C(=O)N(Cc2cccnc2)C3=O)cc1 |  | inactive: 18%
COc1cccc(C(=O)CSc2nnc(COc3cccc4cccnc34)o2)c1 | active: 6.51 µM | 
Cc1noc(/C=C/N(C)C)c1S(=O)(=O)N1CCCC(C(=O)NCCC2=CCCCC2)C1 (centres undefined) | inconclusive [activator, single point] | 
COc1cc(NC(=S)NN2CCN(C)CC2)cc(OC)c1 | inconclusive [activator, full curve, poor fit] | 
CCOC(=O)c1ccc(CN2Cc3ccccc3C2=O)cc1 |  | inactive: 19.1%
CC(=O)N=c1c(C#N)cc2c(=O)n3cccc(C)c3nc2n1CCCOC(C)C | inconclusive [activator, full curve, poor fit] | 
O=C(NCCN1CCN(C(=O)c2ccc([N+](=O)[O-])cc2)CC1)C(=O)Nc1ccc(F)cc1 | inconclusive [activator, partial curve, poor fit] | 
